# From article PMC4336329 (PLoS ONE, 2015)
# Screen size: about 310,000 compounds; about 2,200 (0.71%) showed an effect of 50% or more. Effects have a minus sign here. The list shows a part of the results.
# Molecular target: human ether-à-go-go-related gene (hERG) potassium channel (human, UniProt Q12809)
# Assay: primary screen, population patch clamp on CHO cells stably expressing hERG
# human ether-à-go-go-related gene (hERG) potassium channel, sequence (Q12809 whole entry, looked up): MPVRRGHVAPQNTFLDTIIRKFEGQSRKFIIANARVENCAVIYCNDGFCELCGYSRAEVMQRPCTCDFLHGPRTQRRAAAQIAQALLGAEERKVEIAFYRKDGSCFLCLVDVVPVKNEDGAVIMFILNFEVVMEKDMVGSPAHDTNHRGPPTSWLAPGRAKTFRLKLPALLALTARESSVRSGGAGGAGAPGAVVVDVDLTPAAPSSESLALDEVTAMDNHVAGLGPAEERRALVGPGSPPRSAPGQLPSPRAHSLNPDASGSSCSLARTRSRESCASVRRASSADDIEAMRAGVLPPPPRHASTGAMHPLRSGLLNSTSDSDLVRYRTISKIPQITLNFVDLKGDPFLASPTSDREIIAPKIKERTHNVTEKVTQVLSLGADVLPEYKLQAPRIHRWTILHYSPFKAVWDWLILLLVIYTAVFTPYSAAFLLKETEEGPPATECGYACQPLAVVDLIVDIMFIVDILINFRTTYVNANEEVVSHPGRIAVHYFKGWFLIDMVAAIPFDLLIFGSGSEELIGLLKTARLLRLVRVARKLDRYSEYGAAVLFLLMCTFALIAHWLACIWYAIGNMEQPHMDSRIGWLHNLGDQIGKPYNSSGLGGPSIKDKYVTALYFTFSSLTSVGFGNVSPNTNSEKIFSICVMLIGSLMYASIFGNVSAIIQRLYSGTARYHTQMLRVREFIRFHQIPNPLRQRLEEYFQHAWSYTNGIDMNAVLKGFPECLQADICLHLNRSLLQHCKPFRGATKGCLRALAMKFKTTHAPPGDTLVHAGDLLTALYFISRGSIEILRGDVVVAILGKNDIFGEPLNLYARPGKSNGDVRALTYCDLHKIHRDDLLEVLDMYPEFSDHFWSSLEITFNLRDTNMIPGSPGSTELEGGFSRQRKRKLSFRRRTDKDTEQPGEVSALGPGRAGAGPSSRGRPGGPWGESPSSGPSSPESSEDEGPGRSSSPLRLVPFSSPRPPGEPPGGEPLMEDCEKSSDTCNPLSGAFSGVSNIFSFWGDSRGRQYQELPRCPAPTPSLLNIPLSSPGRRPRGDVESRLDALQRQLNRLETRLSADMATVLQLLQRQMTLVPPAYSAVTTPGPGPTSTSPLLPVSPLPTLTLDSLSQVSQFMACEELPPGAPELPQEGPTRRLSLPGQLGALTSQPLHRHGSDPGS
row,Compound,"hERG current change (%, negative = inhibition) at 1uM [%]"
1,O=C(/C=C/c1ccccc1[N+](=O)[O-])OCC(=O)N1CCCC1,17.4
2,CCOC(=O)CNC(=O)c1cnn2cccnc12,5.04
3,C=CCn1cc(C(=O)NCCCN(CC)CC)c(=O)c2cc(S(=O)(=O)N3CCC(C)CC3)ccc21,4.65
4,Cc1nn(-c2ccccc2)c(C)c1NC(=O)COC(=O)Cc1ccccc1F,3.85
5,Cc1csc2c(N3CCC(C(=O)O)CC3)ncnc12,7.44
6,COc1ccc(/C=C2\SC(=S)N(CCC(=O)N3CCCCC3)C2=O)cc1,-2.37
7,O=C(NCc1ccco1)c1cccs1,11.1
8,CCCCOC(=O)Nc1nnc(CC)s1,16.7
9,CCCCOc1ccc(-c2nnn(CC(=O)c3c[nH]c4ccccc34)n2)cc1,19.5
10,CC(C)C(NC(=O)C12CC3CC(CC(C3)C1)C2)C(=O)O (stereo not shown),3.71
11,COc1ccc(OC(C)C(=O)Nc2cccc([N+](=O)[O-])c2)cc1 (stereo not shown),-10.5
12,C=C(C)COc1ccc2c(C)c(CC(=O)N3C[C@H]4C[C@@H](C3)c3cccc(=O)n3C4)c(=O)oc2c1C,-10.5
13,CCn1c(NCCc2ccc(OC)c(OC)c2)nc2c1c(=O)n(C)c(=O)n2C,9.13
14,CC1(c2nnc(-c3ccccc3)o2)CC(c2ccc(F)cc2)=NO1 (stereo not shown),5.91
15,COc1ccccc1CNC(=O)C1CCN(S(=O)(=O)c2ccc3c(c2)NC(=O)CO3)CC1,8.4
16,O=C(Nc1ccccn1)C1CCN(C(=O)c2ccc(F)cc2)CC1,-0.638
17,Cc1c(Br)c([N+](=O)[O-])nn1CC(=O)NCc1ccccc1,1.49
18,Cn1c(CCNS(=O)(=O)c2ccccc2)nnc1SCc1cccnc1,16
19,COc1ccc(CC(=O)N2CCCC(CNC(=O)c3ccccc3Cl)C2)cc1 (stereo not shown),9.19
20,O=C(Nc1ccc(N2CCOCC2)cc1)c1cc(-n2cnnc2)ccc1Cl,11.7
21,COc1ccc(CN(C(=O)CCC(=O)N2CCCCC2)c2nccs2)cc1OC,-2.89
22,Cc1ccc(S(=O)(=O)N2CCCC2)cc1C(=O)NC1CCCCC1,19.2
23,COC(=O)C1=C(C)N(c2cccc3ccccc23)C(=O)C1,-0.602
24,C=COCCNC(=O)C(=O)NC(C)C,0.875
25,Cc1ccc(CNS(=O)(=O)c2ccc(CN3C(=O)c4cccnc4C3=O)s2)o1,20.7
